Measured values reported in US20230235057A1 (CHIA TAI TIANQING PHARMACEUTICAL GROUP, published 2023).

What was measured:
human PD-1 [1] = target: T1, human PD-1 (human, UniProt Q15116 25-288); test: cell-based or functional assay
human PD-1 [2] = target: T1, human PD-1; test: cell-based or functional assay; remark: listed apart in the source
T1 sequence (Q15116 25-288): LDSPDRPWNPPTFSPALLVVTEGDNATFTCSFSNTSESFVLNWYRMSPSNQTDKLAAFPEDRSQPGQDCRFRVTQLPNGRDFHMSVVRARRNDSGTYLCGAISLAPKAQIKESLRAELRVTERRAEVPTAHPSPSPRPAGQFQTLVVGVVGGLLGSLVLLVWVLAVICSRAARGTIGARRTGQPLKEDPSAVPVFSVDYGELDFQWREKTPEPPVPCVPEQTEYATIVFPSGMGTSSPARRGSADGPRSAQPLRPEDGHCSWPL

B1: PD1/TGFβRII fusion protein (other)
heavy: EVQLVESGGGLVQPGGSLRLSCAASGFAFSSYDMSWVRQAPGKGLDWVATISGGGRYTYYPDSVKGRFTISRDNSKNNLYLQMNSLRAEDTALYYCANRYGEAWFAYWGQGTLVTVSSASTKGPSVFPLAPSSKSTSGGTAALGCLVKDYFPEPVTVSWNSGALTSGVHTFPAVLQSSGLYSLSSVVTVPSSSLGTQTYICNVNHKPSNTKVDKKV[human IgG1 Fc with L234A L235A G237A (EU numbers) not spelt out]AGGGGSGGGGSGGGGSGGGGSGIPPHVQKSVNNDMIVTDNNGAVKFPQLCKFCDVRFSTCDNQKSCMSNCSITSICEKPQEVCVAVWRKNDENITLETVCHDPKLPYHDFILEDAASPKCIMKEKKKPGETFFMCSCSSDECNDNIIFSEEYNTSNPD
light: DIQMTQSPSSMSASVGDRVTFTCRASQDINTYLSWFQQKPGKSPKTLIYRANRLVSGVPSRFSGSGSGQDYTLTISSLQPEDMATYYCLQYDEFPLTFGAGTKLELKRTVAAPSVFIFPPSDEQLKSGTASVVCLLNNFYPREAKVQWKVDNALQSGNSQESVTEQDSKDSTYSLSSTLTLSKADYEKHKVYACEVTHQGLSSPVTKSFNRGEC
Human PD-1 [1]
  Biological activity (EC50 of control / EC50 of test sample), reporter gene assay, against Nivolumab: 72%
  EC50 value (ng/mL), reporter gene assay (CHO-PDL1-CD3L cells with Jurkat-PD-1-NFAT cells, luciferase RLU): 158 ng/mL
Human PD-1 [2]
  EC50 value (ng/mL), reporter gene assay with reference to Example 4: 282 ng/mL
